One block for each binder: values may come before it.
Assays:
[1] = target: T1, GDF8 (UniProt O14793 267-375); experiment: similar Biacore binding assay
T1 construct: also called myostatin
T1 sequence (looked up): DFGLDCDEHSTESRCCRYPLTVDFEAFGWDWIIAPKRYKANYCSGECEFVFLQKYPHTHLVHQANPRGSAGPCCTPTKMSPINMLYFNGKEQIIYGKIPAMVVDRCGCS
Description: (§1) GDF11 or activin A were immobilized on a Biacore™ CM5 chip using standard amine-coupling procedure. ActRIIA-hFc and ActRIIA-mFc proteins were loaded onto the system, and binding was measured. […] Using a similar binding assay, ActRIIA-hFc was determined to have high to moderate affinity for other TGF-beta superfamily ligands including, for example, activin B, GDF8, BMP6, and BMP10. ActRIIA-mFc behaved similarly.

[2] = target: T2, activin B (UniProt P09529 293-407); experiment: similar Biacore binding assay
T2 sequence (looked up): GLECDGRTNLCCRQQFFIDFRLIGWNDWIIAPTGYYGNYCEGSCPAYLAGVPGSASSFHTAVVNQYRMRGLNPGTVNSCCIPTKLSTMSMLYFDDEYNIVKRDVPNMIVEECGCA
Description: as §1

[3] = target: T3, BMP10 (UniProt O95393 317-424); experiment: similar Biacore binding assay
T3 sequence (looked up): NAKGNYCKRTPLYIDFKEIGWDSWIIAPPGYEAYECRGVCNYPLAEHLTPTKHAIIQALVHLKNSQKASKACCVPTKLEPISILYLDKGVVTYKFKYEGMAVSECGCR
Description: as §1

[4] = target: T1, GDF8; experiment: SPR (Biacore)
[5] = target: T3, BMP10; experiment: SPR (Biacore)

binding result [1]: binds
binding result [2]: binds
binding result [3]: binds
B1: ActRIIA-hFc (Fc fusion)
chain: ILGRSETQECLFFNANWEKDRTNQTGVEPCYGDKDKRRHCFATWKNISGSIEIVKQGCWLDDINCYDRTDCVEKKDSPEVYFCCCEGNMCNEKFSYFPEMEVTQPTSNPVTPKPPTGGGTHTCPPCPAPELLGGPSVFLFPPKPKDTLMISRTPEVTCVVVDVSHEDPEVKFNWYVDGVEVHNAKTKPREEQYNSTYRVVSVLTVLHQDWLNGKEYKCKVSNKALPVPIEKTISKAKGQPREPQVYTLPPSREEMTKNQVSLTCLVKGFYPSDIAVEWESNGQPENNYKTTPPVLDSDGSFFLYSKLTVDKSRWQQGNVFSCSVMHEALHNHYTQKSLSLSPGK
notes: also called ActRIIA-hFc fusion protein; ActRIIa-Fc

binding result [4]: binds
binding result [5]: binds
B2: ActRIIB(L79D 25-131)-hFc (Fc fusion)
chain: ETRECIYYNANWELERTNQSGLERCEGEQDKRLHCYASWRNSSGTIELVKKGCWDDDFNCYDRQECVATEENPQVYFCCCEGNFCNERFTHLPEAGGPEVTYEPPPTG[human IgG1 Fc and a few adjoining residues not written out]
notes: also called truncated GDF trap; GDF trap with truncated ActRIIB extracellular domain

From US20200397865A1 (ACCELERON PHARMA, published 2020)
